Results on 44 molecules are retold here after publication PMC4336329 (PLoS ONE, 2015).

Out of some 310,000 compounds screened, about 2,200 (0.71%) showed an effect of 50% or more. Effects have a minus sign here. This is one part of the list.

Chain of human ether-à-go-go-related gene (hERG) potassium channel (Q12809 whole entry, looked up): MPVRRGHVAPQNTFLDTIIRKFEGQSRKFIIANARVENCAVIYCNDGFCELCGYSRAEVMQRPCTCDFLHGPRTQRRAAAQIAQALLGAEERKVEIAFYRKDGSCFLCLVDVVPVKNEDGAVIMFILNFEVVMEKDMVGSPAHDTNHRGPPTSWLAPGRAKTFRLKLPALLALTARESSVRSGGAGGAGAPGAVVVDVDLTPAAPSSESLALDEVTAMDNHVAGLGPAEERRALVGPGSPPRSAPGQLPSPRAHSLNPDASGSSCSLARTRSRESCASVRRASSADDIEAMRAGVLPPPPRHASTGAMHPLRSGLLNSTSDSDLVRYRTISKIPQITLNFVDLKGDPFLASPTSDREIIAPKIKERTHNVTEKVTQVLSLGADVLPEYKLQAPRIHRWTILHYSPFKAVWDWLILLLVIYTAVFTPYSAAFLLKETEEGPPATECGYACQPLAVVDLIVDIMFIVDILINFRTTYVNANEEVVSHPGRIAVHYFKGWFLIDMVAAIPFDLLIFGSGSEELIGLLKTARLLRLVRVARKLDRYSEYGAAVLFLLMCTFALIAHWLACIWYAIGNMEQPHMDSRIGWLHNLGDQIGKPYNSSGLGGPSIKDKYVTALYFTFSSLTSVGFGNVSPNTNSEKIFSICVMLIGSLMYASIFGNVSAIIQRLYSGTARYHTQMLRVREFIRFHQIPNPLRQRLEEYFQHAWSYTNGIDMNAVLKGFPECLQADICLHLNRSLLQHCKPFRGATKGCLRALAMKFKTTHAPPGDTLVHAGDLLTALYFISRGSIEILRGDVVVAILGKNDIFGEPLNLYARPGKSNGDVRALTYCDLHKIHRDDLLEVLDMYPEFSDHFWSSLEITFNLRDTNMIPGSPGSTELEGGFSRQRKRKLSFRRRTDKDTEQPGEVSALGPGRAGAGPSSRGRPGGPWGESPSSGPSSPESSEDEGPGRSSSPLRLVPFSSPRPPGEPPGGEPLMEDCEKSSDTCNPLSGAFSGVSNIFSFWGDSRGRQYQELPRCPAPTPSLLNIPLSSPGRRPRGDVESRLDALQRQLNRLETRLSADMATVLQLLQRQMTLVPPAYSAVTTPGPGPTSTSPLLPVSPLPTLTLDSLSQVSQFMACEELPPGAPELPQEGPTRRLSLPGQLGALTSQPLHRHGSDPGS

The assay has as its target human ether-à-go-go-related gene (hERG) potassium channel (human, UniProt Q12809). The assay is described as follows: primary screen, population patch clamp on CHO cells stably expressing hERG.
For `CC(=O)c1ccc(NC(=O)c2cc(=O)[nH]c3ccccc23)cc1`, the “hERG current change (%, negative = inhibition) at 1uM” value was determined as 5.01%.

For `Cc1cnn(C(=S)NCc2ccc(Cl)cc2)c1`, the “hERG current change (%, negative = inhibition) at 1uM” value was 15.3%. Then `CCN(CC)C(=O)Cn1cc(C(=O)C(=O)NCc2ccccn2)c2ccccc21`, with 7.46%; and `COc1ccc(OC)c2sc(N3CCCCC3)nc12`, with 12%. In the case of `Cc1ccc(O)c(-c2cc(C(=O)NCc3ccccc3)[nH]n2)c1`, the “hERG current change (%, negative = inhibition) at 1uM” value is recorded as -2.35%.

Turning to `COc1ccc(C(=O)N(C)Cc2ccccc2)cc1Br`, the “hERG current change (%, negative = inhibition) at 1uM” value is 6.31%. Take `CC(=O)c1sc(NC(=O)C(C)C)nc1C`: the “hERG current change (%, negative = inhibition) at 1uM” value is given as 6.12%.

Consider `O=C(NN1C(=O)/C(=C/c2ccc(O)c([N+](=O)[O-])c2)SC1=S)c1ccccc1Cl`, for which the “hERG current change (%, negative = inhibition) at 1uM” value is recorded as -2.08%. Then `CCOCCCN(C(=O)c1snc(C(N)=O)c1N)C(C(=O)NC1CCCC1)c1ccc(O)cc1` (centres unmarked), with 14.6%; and `O=C(Nc1ccc(Br)cc1Cl)c1cnccn1`, with 7.08%.

Take `COc1ccccc1C(=O)N1CCN(C(=O)Cc2ccccc2)CC1`: the “hERG current change (%, negative = inhibition) at 1uM” value is listed as 10.2%.

Take `COc1cccc(-c2nn(-c3ccccc3)cc2CN2CCCO2)c1`: the “hERG current change (%, negative = inhibition) at 1uM” value was found to be 9.68%. Turning to `N#C/C(=C\Nc1ccccc1SC(F)(F)F)c1nc(-c2ccccc2)cs1`, the “hERG current change (%, negative = inhibition) at 1uM” value was determined as 6.83%. On to `COC(=O)C1=C2SCC(=O)N2C(N)=C(C#N)C1`, for which the “hERG current change (%, negative = inhibition) at 1uM” value is on record as 11.5%. For the molecule `CC(OC(=O)C1CC(=O)N(Cc2ccccc2)C1)C(=O)Nc1cccc(C#N)c1` (centres unmarked), the “hERG current change (%, negative = inhibition) at 1uM” value is listed as 6.08%. Then `CC(=O)Nc1ccc(Nc2ccc3nonc3c2[N+](=O)[O-])cc1`, with -0.426%; and `O=C(O)c1nccnc1C(=O)NCc1csc2ccc(Cl)cc12`, with 13%; and `O=C(Cc1ccccc1)Nc1ccc(C(=O)NCc2ccccc2)cc1`, with 18.6%. For the molecule `COC(=O)c1ccc(NC(=O)C(=O)N2CCCC2)cc1`, the “hERG current change (%, negative = inhibition) at 1uM” value was determined as 2.04%. Regarding `CC(=O)Nc1cccc(C(=O)/C=C/c2ccc(C)cc2)c1`, the “hERG current change (%, negative = inhibition) at 1uM” value is recorded as -4.5%.

`Cc1ccc(S(=O)(=O)N2CCCCC2)cc1NC(=O)CSc1nnc(N)s1`: the “hERG current change (%, negative = inhibition) at 1uM” value is recorded as -8.31%. For `O=C(COc1cccc(C(F)(F)F)c1)NCCCN1CCCC1=O`, the “hERG current change (%, negative = inhibition) at 1uM” value is listed as -1.13%.

For `CC(C)CCNC(=O)C(C)N(Cc1ccc(F)cc1)C(=O)c1ccc(CN2CCCCC2)o1` (centres unmarked), the “hERG current change (%, negative = inhibition) at 1uM” value is reported as -12.3%. For the molecule `CCn1c(=O)c2cc(C(=O)NCCCOC)sc2c2ccccc21`, the “hERG current change (%, negative = inhibition) at 1uM” value is given as 16.1%.

On to `CCOC(=O)c1c(N)c(C#N)c2n1CCCCC2`, for which the “hERG current change (%, negative = inhibition) at 1uM” value worked out at 5.83%.

With `CC(C)N(Cc1ccccc1)C(=O)COC(=O)C1CCN(S(=O)(=O)c2ccc3c(c2)OCCO3)CC1`, the “hERG current change (%, negative = inhibition) at 1uM” value stood at 10.2%.

Take `Cc1cccnc1NC(=O)COc1ccc2c(c1)CCC2`: the “hERG current change (%, negative = inhibition) at 1uM” value is given as 4.83%.

`O=C(O)C[C@H]1c2ccccc2S(=O)(=O)N1C1CCCC1`: the “hERG current change (%, negative = inhibition) at 1uM” value was 20.4%. As for `O=C(NCc1ccccc1)/C(NC(=O)c1ccccc1)=C(/Sc1ccccn1)c1ccccc1`, the “hERG current change (%, negative = inhibition) at 1uM” value was found to be 14.2%.

In the case of `COc1cccc(-c2csc(N3CCN(CC(=O)NNC(=O)c4ccc(Cl)cc4)CC3)n2)c1`, the “hERG current change (%, negative = inhibition) at 1uM” value is reported as 8.21%. For `CC(Sc1nc(-c2ccccc2)cc(C(F)(F)F)n1)C(=O)N1CCCCC1` (centres unmarked), the “hERG current change (%, negative = inhibition) at 1uM” value is given as -6.22%. Take `CC(C(=O)N1CCOCC1)c1ccc([N+](=O)[O-])cc1` (centres unmarked): the “hERG current change (%, negative = inhibition) at 1uM” value is reported as 9.61%.

For the molecule `Cc1ccc(OCC(=O)N2CCN(C3=NS(=O)(=O)c4ccccc43)CC2)cc1`, the “hERG current change (%, negative = inhibition) at 1uM” value is on record as -30.7%. As for `CC(C)[C@H](NC(=O)N1c2ccccc2NC(=O)[C@@H]1C(C)C)C(=O)N[C@H](Cc1ccccc1)C(=O)O`, the “hERG current change (%, negative = inhibition) at 1uM” value is on record as 6.78%. As to `COC(=O)c1c(C)nc(C)c(C(=O)OC)c1-c1ccc(OC)c(OC)c1`, the “hERG current change (%, negative = inhibition) at 1uM” value stood at 12.7%. For the molecule `CC(=O)N(CC(C)C(=O)O)c1c(I)cc(I)c(N)c1I` (centres unmarked), the “hERG current change (%, negative = inhibition) at 1uM” value stood at 17.5%. As to `CCC(C)NC(=O)N[C@@H](CCSC)C(=O)O` (some centres unmarked), the “hERG current change (%, negative = inhibition) at 1uM” value amounted to 8.95%. As for `Cc1cc(C(=O)NCc2ccccc2Cl)c2ccccc2n1`, the “hERG current change (%, negative = inhibition) at 1uM” value was 5.92%. As for `NC(=O)C[N+]1(CC#CC(O)(c2ccccc2)c2ccccc2)CCCC1.[I-]`, the “hERG current change (%, negative = inhibition) at 1uM” value amounted to 13.9%. Then `CCCNC(=O)CS(=O)(=O)Cc1nc(-c2cccc(OC)c2)oc1C`, with -284%. Turning to `CCOc1ccccc1CNC(=O)c1ccc2c(c1)N(CC)CCS2`, the “hERG current change (%, negative = inhibition) at 1uM” value is given as -2.83%. Then `Cc1c(NCc2ccncc2)cccc1C(=O)O`, with 14.3%; and `Cn1c(O)c(N=NC(=N)N)c2ccccc21`, with 25.5%; and `COC(=O)C1=C(c2ccc(OC)c(OC)c2)C[C@@H]2CC[C@H]1N2C(=O)NC1CCCCC1`, with 13.7%.
